The record followed here is ChEMBL document CHEMBL4888484, “Replenishing the malaria drug discovery pipeline: Screening and hit evaluation of the MMV Hit Generation Library 1 (HGL1) against asexual blood stage Plasmodium falciparum ,using a nano luciferase reporter read-out” (2022).

About 540 (0.36%) of roughly 150,000 compounds showed an effect of 50% or more. Some of the results follow.

The experiment deals with Plasmodium falciparum. The experiment is described as follows: Primary screen in NF54 nanoGlo assay, in single point, at 2uM, 72h; a lower Z score goes with more inhibition. The format is functional, Erythrocyte. As to conditions: timepoint 72 hour.
In the case of `COc1cccc(Cn2c(C)c(C3CCN(S(=O)(=O)c4cccc(C)c4)CC3)c3ccccc32)c1`, the “% Inhibition” value was -8% and the Z score is reported as 1.13.

Turning to `CN(C)c1ccc(CN2CCC[C@H](C(F)(F)F)C2)cn1`, the “% Inhibition” value is listed as 9% and the Z score is on record as -1.11.

On to `C[C@@H](Cc1ccccn1)NC(=O)c1ccc2nc(-c3ccc(F)cc3)cn2c1`, for which the “% Inhibition” value is -11% and the Z score worked out at 1.1.

In the case of `Cc1cccc(CNC(=O)c2ccc(-n3c(C)cc4c3CC[C@H](C)C4)cc2)c1`, the “% Inhibition” value is given as -4% and the Z score is 0.51.

For the molecule `C#CCOC[C@@H](O)CN(Cc1cccc(C)c1)C(C)C`, the “% Inhibition” value was 0% and the Z score was 0.03.

For the molecule `O=C(CCn1cncn1)N1CCOC[C@@H]1CC1CCOCC1`, the “% Inhibition” value was -11% and the Z score is listed as 1.16.

For `Cc1nc(C)n(C[C@H]2CCCCN2CCn2cccn2)n1`, the “% Inhibition” value was determined as 1% and the Z score is -0.1.

Take `CC(C)n1ccnc1-c1cccc(C(=O)NCCc2ccco2)c1`: the “% Inhibition” value is recorded as -10% and the Z score is listed as 1.92.

For `c1cnn(CCCNc2nc(C3CC3)nc3c2CCC3)c1`, the “% Inhibition” value is reported as -15% and the Z score is 1.59.

With `CN(CCCn1cccn1)Cc1cccc(-c2nc3c(c(=O)[nH]2)CCCC3)c1`, the “% Inhibition” value turned out to be 2% and the Z score is listed as -0.27.

For `O=C1C[C@H](c2nc(-c3ccc(-c4csc(C5CC5)n4)cc3)no2)CN1c1ccccc1`, the “% Inhibition” value is given as -14% and the Z score is recorded as 1.46.

For `CC(C)(C)[C@H]1CCc2c(sc(NC(=O)c3cc4nc(-c5ccc6c(c5)OCO6)cc(C(F)(F)F)n4n3)c2C#N)C1`, the “% Inhibition” value is -2% and the Z score is 0.22.

In the case of `Nn1c(-c2ccc(COc3ccccc3Br)cc2)nc2ccccc2c1=O`, the “% Inhibition” value was -1% and the Z score is on record as 0.15.

With `F[C@H]1CCCC[C@@H]1NCc1csnn1`, the “% Inhibition” value is given as -9% and the Z score was found to be 1.32.

`CCCCNCc1ccc(Br)cc1`: the “% Inhibition” value is recorded as 10% and the Z score was -1.23.

With `CC(C)(C)c1nc2ccccn2c1-c1ccc(C(=O)N2CCOCC2)cc1`, the “% Inhibition” value is reported as -17% and the Z score amounted to 2.48.

In the case of `COC(=O)CCC(=O)Nc1nc(C)sc1-c1ccccc1`, the “% Inhibition” value is reported as 12% and the Z score is reported as -1.78.

As for `CC(=O)N1CCN(C(=O)C2=C(C)NC(=O)N[C@H]2CCc2ccccc2)CC1`, the “% Inhibition” value is listed as -9% and the Z score is 1.1.

Regarding `CCCc1noc([C@H](C)N(C)Cc2nc3ccccc3s2)n1`, the “% Inhibition” value is given as -13% and the Z score was 1.76.

For the molecule `CN(CCn1ccnc1)c1cc(C2CC2)ncn1`, the “% Inhibition” value is on record as 17% and the Z score is given as -2.05.

For the molecule `CC(C)(C)n1cc(Cn2ccc(=O)c3cccc(OC(F)(F)F)c32)nn1`, the “% Inhibition” value is on record as -9% and the Z score was 1.14.

On to `CCC(C(=O)O)N1CCCC(CN2CCN(c3ccccn3)CC2)C1` (stereo unspecified), for which the “% Inhibition” value was -9% and the Z score is 0.87.

Take `O=c1[nH]nc(Cc2ccncc2)n1CC1CCCCC1`: the “% Inhibition” value was -11% and the Z score came to 2.16.

In general, % Inhibition refers to the relative decrease from the control value, in per cent.
